Assay results taken from patent US5023265A, “Substituted 1-H-pyrrolopyridine-3-carboxamides” (Schering Corporation, priority 1990, dated 1991).
The name of at least one read-out is uncertain.

What follows are compounds tested against T1, 5-lipoxygenase (Rattus norvegicus, UniProt P12527) (assay: Rat CO/LO Inhibition: 5-lipoxygenase metabolite 5-HETE in rat pleural neutrophils). Settings: 1.5 M × 10^-5, rat neutrophils.
T1 construct: intact neutrophils/0.1 mL of suspension; endogenous in cells; host or cells: neutrophils from rat pleural exudate, 4 hours after a BSA / anti-BSA reaction (85-95% neutrophils)
T1 sequence (P12527 1-673): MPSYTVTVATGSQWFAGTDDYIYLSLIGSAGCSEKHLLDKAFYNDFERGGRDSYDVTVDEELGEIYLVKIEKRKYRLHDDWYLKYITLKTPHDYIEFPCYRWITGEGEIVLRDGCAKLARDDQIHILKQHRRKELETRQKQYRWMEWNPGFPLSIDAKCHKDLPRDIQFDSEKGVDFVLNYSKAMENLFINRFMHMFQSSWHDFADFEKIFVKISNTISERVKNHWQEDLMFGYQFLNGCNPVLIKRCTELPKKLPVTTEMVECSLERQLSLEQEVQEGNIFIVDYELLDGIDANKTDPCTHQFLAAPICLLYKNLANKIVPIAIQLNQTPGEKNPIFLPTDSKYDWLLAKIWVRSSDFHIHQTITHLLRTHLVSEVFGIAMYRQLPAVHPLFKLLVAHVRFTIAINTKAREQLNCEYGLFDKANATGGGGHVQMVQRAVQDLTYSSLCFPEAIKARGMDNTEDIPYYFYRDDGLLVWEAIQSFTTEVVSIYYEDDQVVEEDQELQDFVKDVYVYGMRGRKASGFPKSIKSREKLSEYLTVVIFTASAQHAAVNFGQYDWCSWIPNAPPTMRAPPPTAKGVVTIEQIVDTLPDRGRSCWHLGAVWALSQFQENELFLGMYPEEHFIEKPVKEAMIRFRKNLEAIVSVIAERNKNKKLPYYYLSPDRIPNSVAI
Type: cell-based, male Wistar-Lewis rats
In the case of `COc1ccc(NC(=O)c2c(O)n(-c3ccccc3)c3ncccc23)cc1`, the “Cyclooxygenese/lipoxygenese % Inhib. 5-HETE” value is reported as 9%.

Same assay, conditions: 5 M × 10^-5, rat neutrophils
`O=C(Nc1ccccc1)c1c(O)n(-c2ccccc2)c2ncccc12` was tested, and the “Cyclooxygenese/lipoxygenese % Inhib. 5-HETE” value was 34%. For `O=C(Nc1ccccc1)c1c(O)n(-c2cccc(C(F)(F)F)c2)c2ncccc12`, the “Cyclooxygenese/lipoxygenese % Inhib. 5-HETE” value was 35%. `O=C(Nc1ccccn1)c1c(O)n(-c2ccccc2)c2ncccc12` was tested, and the “Cyclooxygenese/lipoxygenese % Inhib. 5-HETE” value was 2%. `O=C(Nc1ccccc1)c1c(O)n(-c2ccc(Cl)cc2)c2ncccc12` was tested, and the “Cyclooxygenese/lipoxygenese % Inhib. 5-HETE” value was 20%. For `O=C(Nc1cccc(C(F)(F)F)c1)c1c(O)n(-c2ccccc2)c2ncccc12`, the “Cyclooxygenese/lipoxygenese % Inhib. 5-HETE” value was 18%. For `O=C(Nc1ccc(F)cc1F)c1c(O)n(-c2ccccc2)c2ncccc12`, the “Cyclooxygenese/lipoxygenese % Inhib. 5-HETE” value was 19%. For `O=C(Nc1ccccc1)c1c(O)n(Cc2ccccc2)c2ncccc12`, the “Cyclooxygenese/lipoxygenese % Inhib. 5-HETE” value was 35%. For `Cc1cc(NC(=O)c2c(O)n(-c3ccccc3)c3ncccc23)no1`, the “Cyclooxygenese/lipoxygenese % Inhib. 5-HETE” value was 22%. For `O=C(Nc1ccccc1)c1c(O)[nH]c2ncccc12`, the “Cyclooxygenese/lipoxygenese % Inhib. 5-HETE” value was 9%. `CCCCNC(=O)c1c(O)n(-c2ccccc2)c2ncccc12` was tested, and the “Cyclooxygenese/lipoxygenese % Inhib. 5-HETE” value was 2%. In the case of `O=C(NCc1ccccc1)c1c(O)n(-c2ccccc2)c2ncccc12`, the “Cyclooxygenese/lipoxygenese % Inhib. 5-HETE” value is reported as 0%. In the case of `O=C(Nc1ccccc1)c1c(O)n(Cc2ccc(F)cc2)c2ncccc12`, the “Cyclooxygenese/lipoxygenese % Inhib. 5-HETE” value is reported as 17%. `Cn1c(O)c(C(=O)Nc2ccccc2)c2cccnc21` was tested, and the “Cyclooxygenese/lipoxygenese % Inhib. 5-HETE” value was 0%.
